Molecules are shown by their SMILES.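 All cell lines were grown in 96-well plates and treated with compound for 48 hours. At the GI50, growth is halved.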 The source made the active and inactive calls. No stated cut-off is given here; in the data, active = GI50 up to about 1.1 µM and inactive = higher. Some results are limits rather than exact numbers.

The text below walks through data of ChEMBL document CHEMBL1201862, “PubChem BioAssay data set” (2004).

In the test the test system is NCI-H322M. As to the kind of experiment: NCI anticancer screen, dose series, 48 h.
As for `CC1=CC2=C(C)C3(CC3)[C@@](C)(O)C(=O)C2=C1`, the GI50 was active: 0.546 µM.
As to `C[C@H](CN1CC(=O)NC(=O)C1)N1CC(=O)NC(=O)C1`, the GI50 was inactive: > 100 µM.
Next, `Cc1ccc(C2NC(=O)c3ccccc3N2)s1` (configuration not stated): inactive: 6.92 µM.
With `Cn1c2c(c3ccccc31)CCN(CCCCN1CCN(c3ccccc3)CC1)C2=O` the figure was inactive: 27.2 µM; with `O=C1CCC2(c3ccc(Cl)cc3)Nc3ccccc3N12` (configuration not stated), inactive: > 100 µM.
With `COc1cc(C2C3=C(COC3=O)Oc3cc4c(cc32)OCO4)cc(OC)c1O` (configuration not stated) the figure was active: 0.0223 µM; with `COc1ccc(/C=C/c2ccnc3ccccc23)cc1`, inactive: 14.2 µM; with `O=C(O)C(CCc1ccccc1)N1C(=O)c2ccccc2C1=O` (configuration not stated), inactive: > 100 µM.
On to `CCOc1ccc(OCC)c([P+](c2ccccc2)(c2ccccc2)c2ccccc2)c1`, for which the GI50 is inactive: 2.6 µM.
Next, `COC(=O)N/N=C(/CC1(O)C(=O)Nc2ccc([N+](=O)[O-])cc21)c1ccccc1` (configuration not stated): inactive: > 47.9 µM; `COC(=O)c1ccccc1Nc1ccccc1C(=O)OC`: inactive: > 100 µM.
Next, `O=[N+]([O-])c1cccc2nccc(NCCCO)c12`: inactive: 17.7 µM; `Cc1nc2ccc(F)cc2c2c1CCN2c1ccc(Cl)cc1`: inactive: 11.2 µM.
Next, `COc1ccc(-c2onc(-c3c(C)cc(C)cc3C)c2C2=NCCN2)cc1`: inactive: 45.1 µM.
As to `CCC(C)(C)n1c(C)nc2c1C(=O)c1ccccc1C2=O`, the GI50 was inactive: 70.8 µM.
Next, `CC(=O)N1[C@H](C(=O)O)CS[C@H]1c1ccncc1`: inactive: > 100 µM; `ClC1(Cl)C2CCOC21n1cnc2ccccc21` (configuration not stated): inactive: > 100 µM.
Next, `Cc1cc(S(=O)(=O)O)c(NC(=O)C(=O)C2C=CCS2(=O)=O)cc1Cl` (configuration not stated): inactive: > 100 µM.
With `CC(C)(C)c1ccc2c(c1)C(O)(c1ccccc1)c1cc(C(C)(C)C)ccc1C2(O)C(F)(F)F` (configuration not stated), the GI50 is inactive: 2.16 µM.
Next, `Nc1nc(N)c2ncn(Cc3ccccc3CO)c2n1`: inactive: > 100 µM; `O=C1OC(c2ccccc2)=N/C1=C/NC(Cc1c[nH]c2ccccc12)C(=O)O` (configuration not stated): inactive: > 100 µM.
Next, `CCOC(=O)[C@H]1Nc2c(cccc2[N+](=O)[O-])C2c3ccccc3CC21` (some centres not stated): inactive: > 100 µM; `COc1ccc(C2C3=C(Nc4ncnn42)c2ccccc2OC3c2ccccc2)cc1` (configuration not stated): inactive: 13.9 µM; `C/C(=N/NC(=O)c1ccccc1S(N)(=O)=O)C(CN1CCCCC1)C(C1=C(O)C2C=CC=CC2OC1=O)c1ccccc1` (configuration not stated): inactive: > 100 µM.
With `CNN1C(=O)c2c(C)c(C)c(C#N)c(N)c2C1=O` the figure was inactive: 18.7 µM; with `[O-][n+]1onc(-c2ccccc2)c1-c1no[n+]([O-])c1-c1c(-c2ccccc2)no[n+]1[O-]`, inactive: 22.6 µM.
On to `CN(COC(=O)C(C)(C)C)c1nc(N(C)COC(=O)C(C)(C)C)nc(N(C)COC(=O)C(C)(C)C)n1`, for which the GI50 was inactive: > 100 µM.
Next, `C=C1CN(Cc2ccccc2)[C@@H]2CCCCC[C@H](C#N)[C@H]12`: inactive: > 92.3 µM; `CC1(CO)C(=O)OC12CCCCC2` (configuration not stated): inactive: > 100 µM.
With `N#Cc1ccc(-c2nc3c(N)ncnc3o2)cc1` the figure was inactive: > 100 µM.
Next, `CC1(C)OP(=O)(O)CC1=O`: inactive: > 100 µM; `CC1=C2C(O)C(C(C)CO)C(O)CC2(C)C(O)CC1` (configuration not stated): inactive: > 100 µM.
As for `Cc1cc(O)c(C(=O)CC2(O)C(=O)Nc3c(Cl)cc(Cl)cc32)c(=O)o1` (configuration not stated), the GI50 was inactive: > 100 µM.
With `C=CCCCC1CCCNC1=S` (configuration not stated) the figure was inactive: > 100 µM; with `COC(=O)C12Oc3ccc(-c4ccc5c(c4O)C(=O)C4=CCC(C)C(O)C4(C(=O)OC)O5)c(O)c3C(=O)C1=CCC(C)C2O` (configuration not stated), inactive: 3.35 µM.
Regarding `CCOC(=O)c1cc(-c2ccc(OC)cc2)c([N+](=O)[O-])[nH]1`, the GI50 is inactive: > 10 µM.
Next, `COC(=O)C(C(=O)C(=O)Nc1ccc(C)cc1C)c1csc(-n2nc(-c3ccccc3)cc2-c2ccccc2)n1` (configuration not stated): inactive: > 100 µM.
As for `NC(=O)c1ncn(C2OC(CO)C(O)C2O)c1NC(=S)NC(=O)c1ccccc1` (configuration not stated), the GI50 is inactive: > 100 µM.
Next, `CC(C)(C)c1cc(OCc2nnc3sc(S)nn23)c(Cl)cc1OCc1nnc2sc(S)nn12`: inactive: 37.9 µM.
With `CC(=O)O[C@H]1C[C@@H](OC(C)=O)[C@@](C)(O)[C@@H]2[C@@H](OC(C)=O)[C@@]3(O)[C@H](/C=C(/CCl)[C@H]4O[C@H]4[C@@H](OC(C)=O)[C@@]12C)OC(=O)[C@@H]3C` the figure was inactive: > 25 µM; with `Fc1ccccc1C1CC(C(c2ccccc2)c2ccccc2)=Nc2ccccc2S1` (configuration not stated), inactive: 12 µM; with `CC(=O)OCCCOCn1c(Cc2ccccc2)c(C)c(=O)[nH]c1=O`, inactive: > 100 µM.
With `CC(=O)OC(OC(C)=O)c1c2ccccc2cc2ccccc12` the figure was inactive: 25.4 µM.
Regarding `CCOC(=O)c1cn2c(n1)sc1cc(F)ccc12`, the GI50 was inactive: > 100 µM.
Next, `Cc1cc(C)nc(NS(=O)(=O)c2ccc(NNc3c4ccccc4nc4c(C(=O)Nc5ccc(S(N)(=O)=O)cc5)cccc34)cc2)n1`: inactive: 56.2 µM; `CCOC(=O)N1c2ccccc2S(=O)(=O)c2ccccc21`: inactive: > 100 µM; `O=C1N=C(SC(SC2=NC(=O)C3(NN2)c2ccccc2-c2ccccc23)=C(SC2=NC(=O)C3(NN2)c2ccccc2-c2ccccc23)SC2=NC(=O)C3(NN2)c2ccccc2-c2ccccc23)NNC12c1ccccc1-c1ccccc12`: inactive: 6.67 µM.
As to `CCOC(=O)C(NC(=O)c1cccc(Cl)c1)(Nc1ccc(S(=O)(=O)Nc2cc(C)on2)cc1)C(F)(F)F` (configuration not stated), the GI50 is inactive: > 100 µM.
For `COC1OC(COC(=O)c2cc(O)c(O)c(O)c2)C(OC(=O)c2cc(O)c(O)c(O)c2)C(OC(=O)c2cc(O)c(O)c(O)c2)C1OC(=O)c1cc(O)c(O)c(O)c1` (configuration not stated), the GI50 is inactive: 47.1 µM.
Next, `COC(O)C(=O)c1ccc2c(c1)CC1(C2)Cc2cc3c(cc2C1=O)CCC3` (configuration not stated): inactive: 19.9 µM; `COC(=O)C1=C(C(=O)OC)SC(=C(/N=N/c2ccccc2)c2ccccc2)S1`: inactive: > 100 µM; `COc1cc(CCC(=O)O)c2cc3ccccc3cc2c1O`: inactive: 61.2 µM.
With `CC(C)Cc1ccc(C(C)/C=C2\CCC(CN3CCCC3)C2=O)cc1` (configuration not stated) the figure was inactive: 22.8 µM; with `CN(C)/C(=N\C#N)N(Cc1ccccc1)Cc1ccccc1`, inactive: > 100 µM.
With `COc1ccc(-c2cc(=O)c3ccccc3o2)cc1N` the figure was inactive: 83.2 µM; with `Cc1c2c(Cl)c3c(c(Cl)c2c(C)c2c(Cl)c4c(c(Cl)c12)C(c1ccccc1)(c1ccccc1)C4(c1ccccc1)c1ccccc1)C(c1ccccc1)(c1ccccc1)C3(c1ccccc1)c1ccccc1`, inactive: > 100 µM; with `CCOC(=O)/C=C/[C@H](O)[C@@H](O)/C=C/C(=O)OCC`, inactive: 33.5 µM.
Take `Nc1nc(Cl)cc(OCC2(CO)CC=CC2)n1`: the GI50 was inactive: > 100 µM.
As for `Nc1ccc2c(c1)C1Oc3ccccc3CC1CO2` (configuration not stated), the GI50 is inactive: > 100 µM.
Next, `Cc1ccc(S(=O)(=O)N/N=C2\C=CC3(CC2)C(=O)N(I)c2ccccc23)cc1` (configuration not stated): inactive: > 100 µM; `Cc1cc(=O)oc2c(C)c3oc(CBr)cc3cc12`: inactive: 24.3 µM.
With `N=c1c2ccccc2nc2oc3cc([N+](=O)[O-])ccc3n12` the figure was inactive: > 100 µM.
Next, `CCOc1ccc(/N=N/C2C(=O)N(C(=O)CC(=O)Nc3ccccc3)N=C2C)cc1` (configuration not stated): inactive: 33.1 µM; `CSC1=N/C(=C\c2ccc(C)cc2)C(=O)N1CN1CCCCC1`: inactive: > 100 µM.
`CCNC(=O)Nc1cccc(NC(=O)NCC)n1`: the GI50 was inactive: > 100 µM.
With `CCCNC(=S)N/C=C1/C(=O)Oc2ccccc2C1=O` the figure was inactive: > 100 µM; with `O=c1c(-c2ccccc2)c(SCCCN2CCN(c3cccc(Cl)c3)CC2)n(-c2ccccc2)c(=S)n1-c1ccccc1`, inactive: > 100 µM; with `N#CC(C(=O)CCC(=O)Nc1ccc(Cl)cc1)c1ccccc1Cl` (configuration not stated), inactive: > 100 µM.
With `Nc1nc(Cl)cc(NC2(CO)CCC2)n1` the figure was inactive: > 100 µM; with `CN1CC[N+](C)=C1c1ccccc1`, inactive: > 100 µM; with `O=c1cc(-c2ccccc2)[nH]c2cc(F)cc(F)c12`, inactive: 30.4 µM.
For the molecule `CC1(C)OCC([C@H]2CC23SCCCS3)O1` (some centres not stated), the GI50 was inactive: > 100 µM.
Regarding `CC1(C)C2CCC3CC(CCC#N)CCC3C21C#N` (configuration not stated), the GI50 was inactive: > 100 µM.
Next, `O=C(O)C(Cc1ccc(O)cn1)NC(=O)C(F)(F)F` (configuration not stated): inactive: > 100 µM; `COc1cccc2ccc(C(=O)c3ccccc3)nc12`: inactive: > 100 µM; `CSC(C1c2ccccc2N(c2ccc(C)cc2)C2=NC(=O)N(C)C(=O)C21Cl)S(=O)(=O)c1ccc(C)cc1` (configuration not stated): inactive: 21.6 µM.
With `CC(C)(/N=N/C(C)(C)C(=O)NCCO)C(=O)NCCO` the figure was inactive: > 100 µM.
With `O=C(CC1(O)C(=O)Nc2c(Cl)cc(Cl)cc21)c1ccc2ccccc2c1` (configuration not stated) the figure was inactive: 13.2 µM.
`COc1ccc(N2C(=O)C3c4[nH]c5ccccc5c4C4CC(C)CC(C)C4C3C2=O)cc1` (configuration not stated): the GI50 was inactive: > 100 µM.
Take `C[C@]12CC[C@@H]3c4ccc(O)cc4CC[C@H]3[C@@H]1CC[C@@H]2OP(=O)(O)O`: the GI50 is inactive: > 100 µM.
Next, `S=C(S)N1CCN(c2cccc(Cl)c2)CC1`: inactive: > 100 µM; `COC(=O)C(COC(=O)/C=C/c1ccc(OC(C)=O)c(OC(C)=O)c1)OC(=O)/C=C/c1ccc(OC(C)=O)c(OC(C)=O)c1` (configuration not stated): inactive: 12 µM.
